The supplement of paper PMC12067230
Single values of this set are uncertain.

Test: amyloid nucleation score relative to library mode (yeast Sup35 reporter selection) (log enrichment difference); higher = more amyloid nucleation; sequences are the first 22 residues of the Bri2 peptide extended by up to 12 random residues
Conditions: random library (experiment): 1;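 active = nucleation score significantly above 0 at FDR 0.05; inactive = not significantly above 0 or absent from output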
Method: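 Random C-terminal extensions of the 22-aa Bri2 peptide by 12 NNK codons; premature stops give shorter extensions. Peptides were fused to the Sup35 nucleation domain in S. cerevisiae [psi-pin-] and selected on -ADE-URA plates for 7 d at 30 °C. The nucleation score is log(output/input), centred to the mode of each of 3 independent libraries (1 input, 3 technical output replicates), with duplicates merged. Sequences absent from the output ('random_non_nuc') were imputed with the library mode value, so they are given as censored (<). Nucleators are scores significantly >0 at FDR 0.05.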
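Also: [psi-pin-] Saccharomyces cerevisiae expressing SupN fusions, induced by 100 µM Cu2SO4, selected 7 d at 30 °C without adenine and uracil, scored by deep sequencing of output versus input.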

Sequence | amyloid nucleation score
EASNCFAIRHFENKFAVETLICCTAVNNVCLGAV | inactive
EASNCFAIRHFENKFAVETLICCTCIFSEDKELR | 9.55
EASNCFAIRHFENKFAVETLICCTCSRQPLRGMQ | 8.84
EASNCFAIRHFENKFAVETLICCTDMSKSLLSS | inactive
EASNCFAIRHFENKFAVETLICCTFVAHQGFAQG | 7.31
EASNCFAIRHFENKFAVETLICCTGSALCQECGM | 7.24
EASNCFAIRHFENKFAVETLICCTHAWKCVSAKR | inactive
EASNCFAIRHFENKFAVETLICCTHYEASRYRRQ | 3.31
EASNCFAIRHFENKFAVETLICCTKC | inactive
EASNCFAIRHFENKFAVETLICCTLL | 8.89
EASNCFAIRHFENKFAVETLICCTLSDNASGVQR | 7.79
EASNCFAIRHFENKFAVETLICCTLYLLPLRV | 4.98
EASNCFAIRHFENKFAVETLICCTMVVQLMLARS | 0.655
EASNCFAIRHFENKFAVETLICCTNLFAIDPVVL | 5.51
EASNCFAIRHFENKFAVETLICCTNLFNRTKLPF | 5.83
EASNCFAIRHFENKFAVETLICCTRSDPLFLYWA | 5.83
EASNCFAIRHFENKFAVETLICCTRTGVASSRGQ | 3.81
EASNCFAIRHFENKFAVETLICCTS | inactive
EASNCFAIRHFENKFAVETLICCTSCSVVVFSPY | 6.44
EASNCFAIRHFENKFAVETLICCTVARLLAESGV | 2.53
EASNCFAIRHFENKFAVETLICCTVDPR | 7.52
EASNCFAIRHFENKFAVETLICCTVFSVCHDAQH | 8.04
EASNCFAIRHFENKFAVETLICCTVWGSFGDIKY | 8.73
EASNCFAIRHFENKFAVETLICCV | 4.93
EASNCFAIRHFENKFAVETLICCVADRC | 6.19

Sequence | amyloid nucleation score
EASNCFAIRHFENKFAVETLICCVCLIQNPASTR | 8.91
EASNCFAIRHFENKFAVETLICCVCLPGVWIRRV | 7.73
EASNCFAIRHFENKFAVETLICCVCRKLKHSCWA | inactive
EASNCFAIRHFENKFAVETLICCVCSTAWLVVVS | inactive
EASNCFAIRHFENKFAVETLICCVEHGKSGTVKV | inactive
EASNCFAIRHFENKFAVETLICCVENE | 5.48
EASNCFAIRHFENKFAVETLICCVFREKWAGRLQ | 0.539
EASNCFAIRHFENKFAVETLICCVGLGYIPKVCK | 6.43
EASNCFAIRHFENKFAVETLICCVGSFRVRDAVW | 8.27
EASNCFAIRHFENKFAVETLICCVGTHGADMCVR | inactive
EASNCFAIRHFENKFAVETLICCVLISESDVPVA | 6.63
EASNCFAIRHFENKFAVETLICCVLKSWLTAITG | inactive
EASNCFAIRHFENKFAVETLICCVLMLVTRFPGI | inactive
EASNCFAIRHFENKFAVETLICCVLVRFTLGYAA | inactive
EASNCFAIRHFENKFAVETLICCVMASSCYFYR | 2.01
EASNCFAIRHFENKFAVETLICCVPAAIDVLSEG | 1.73
EASNCFAIRHFENKFAVETLICCVPHLNCDPFRC | 6.27
EASNCFAIRHFENKFAVETLICCVPVYQFCSATR | 7.86
EASNCFAIRHFENKFAVETLICCVQYTWF | 7.89
EASNCFAIRHFENKFAVETLICCVRR | 7.83
EASNCFAIRHFENKFAVETLICCVRVLYAGCVHW | -0.673
EASNCFAIRHFENKFAVETLICCVSCG | 3.77
EASNCFAIRHFENKFAVETLICCVTCLMSVAHLG | 3.67
EASNCFAIRHFENKFAVETLICCVVGESVGWRRR | 8.54
EASNCFAIRHFENKFAVETLICCVVKAVRKGE | -0.227

Same assay, conditions: random library (experiment): 2

Sequence | amyloid nucleation score
EASNCFAIRHFENKFAVETLICCTE | 1.47
EASNCFAIRHFENKFAVETLICCTGYSRIYSAGD | 8.47
EASNCFAIRHFENKFAVETLICCTIIHYGCHPGL | 5.31
EASNCFAIRHFENKFAVETLICCTIKGRSIFPYY | 6.51
EASNCFAIRHFENKFAVETLICCTKPYFRTSPPD | 0.386
EASNCFAIRHFENKFAVETLICCTKTSLFFYNNA | 7.6
EASNCFAIRHFENKFAVETLICCTLFLGIRIIRS | inactive
EASNCFAIRHFENKFAVETLICCTLITNCFALCL | 6.4
EASNCFAIRHFENKFAVETLICCTLVFLGMSAPM | 6.45
EASNCFAIRHFENKFAVETLICCTMWDRRSISCQ | inactive
EASNCFAIRHFENKFAVETLICCTNSTYEVGMNL | 7.78
EASNCFAIRHFENKFAVETLICCTTNIVFWDSTM | 7.75
EASNCFAIRHFENKFAVETLICCTTRRESTFSAE | 5.29
EASNCFAIRHFENKFAVETLICCTVDNR | 6.84
EASNCFAIRHFENKFAVETLICCTVERKYRVNGS | 2.1
EASNCFAIRHFENKFAVETLICCTVWHIVFRSW | 6.12
EASNCFAIRHFENKFAVETLICCTYWCSVESSDY | 7.77
EASNCFAIRHFENKFAVETLICCVDRSPEPMVWN | 6.23
EASNCFAIRHFENKFAVETLICCVGVRHTLIHDV | 5.15
EASNCFAIRHFENKFAVETLICCVHIL | 8.42
EASNCFAIRHFENKFAVETLICCVI | 6.85

Sequence | amyloid nucleation score
EASNCFAIRHFENKFAVETLICCVIISNIGFLGR | 5.24
EASNCFAIRHFENKFAVETLICCVLCLICLSSNK | 0.86
EASNCFAIRHFENKFAVETLICCVLEGKYRAT | 7.27
EASNCFAIRHFENKFAVETLICCVLFCVIFSYST | 6.5
EASNCFAIRHFENKFAVETLICCVLGMFSFRCKE | 5.48
EASNCFAIRHFENKFAVETLICCVLVCSTVSSYN | inactive
EASNCFAIRHFENKFAVETLICCVMCIKSCRWLS | inactive
EASNCFAIRHFENKFAVETLICCVMECVYYDNIL | 7.27
EASNCFAIRHFENKFAVETLICCVMRCNVVCREE | 6.75
EASNCFAIRHFENKFAVETLICCVNCW | 7.93
EASNCFAIRHFENKFAVETLICCVNSCYFCLNMV | 4.86
EASNCFAIRHFENKFAVETLICCVPLCSM | 7.78
EASNCFAIRHFENKFAVETLICCVQSFWKGSVEG | 8.35
EASNCFAIRHFENKFAVETLICCVRLYWVYSFEL | inactive
EASNCFAIRHFENKFAVETLICCVSLFIINLYRD | 4.84
EASNCFAIRHFENKFAVETLICCVSPCIVSRGVV | 6.31
EASNCFAIRHFENKFAVETLICCVSVYWTTVLLN | 0.571
EASNCFAIRHFENKFAVETLICCVTFV | 7.2
EASNCFAIRHFENKFAVETLICCVVGQTSLVVLL | 4.18
EASNCFAIRHFENKFAVETLICCVVR | inactive
EASNCFAIRHFENKFAVETLICCVVRNRGHLSSE | 2.62

Same assay, conditions: random library (experiment): 3

Sequence | amyloid nucleation score
EASNCFAIRHFENKFAVETLICCTAKHIHLRSCT | inactive
EASNCFAIRHFENKFAVETLICCTDWTLSTWHIS | 7.45
EASNCFAIRHFENKFAVETLICCTGHAARRSRDE | 0.401
EASNCFAIRHFENKFAVETLICCTGYLPISGDLG | 8.91
EASNCFAIRHFENKFAVETLICCTRGSQWHDRGN | 6.49
EASNCFAIRHFENKFAVETLICCTSCVKGNGS | 6.91
EASNCFAIRHFENKFAVETLICCTVYGHVRGLRM | 5.49
EASNCFAIRHFENKFAVETLICCTYAINTIRVSR | 6.71
EASNCFAIRHFENKFAVETLICCTYRNVGEGKRC | 0.582
EASNCFAIRHFENKFAVETLICCVAS | 5.86
EASNCFAIRHFENKFAVETLICCVAVLLVICGWS | inactive
EASNCFAIRHFENKFAVETLICCVCSAQRMRSLL | 5.74
EASNCFAIRHFENKFAVETLICCVCYPFVNLPGV | 8.87
EASNCFAIRHFENKFAVETLICCVDISGIVFGYR | 6.68
EASNCFAIRHFENKFAVETLICCVDSVQLYSVRK | 8.64
EASNCFAIRHFENKFAVETLICCVGVLNFPYFMA | 8.52
EASNCFAIRHFENKFAVETLICCVGWTKSHSLRY | 7.54
EASNCFAIRHFENKFAVETLICCVGY | 7.16
EASNCFAIRHFENKFAVETLICCVLRVQDPVA | 6.63
EASNCFAIRHFENKFAVETLICCVNESFVDRLGL | 7.9
EASNCFAIRHFENKFAVETLICCVPENCSQSTVA | inactive
EASNCFAIRHFENKFAVETLICCVQAAWMSPLVG | 2.18
EASNCFAIRHFENKFAVETLICCVRCP | 0.34
EASNCFAIRHFENKFAVETLICCVREVIQVRLHR | inactive
EASNCFAIRHFENKFAVETLICCVRRMKMVICRY | inactive
EASNCFAIRHFENKFAVETLICCVSYVVIKCTLH | inactive
